Measurements taken from patent publication US20230322822A1, “ARYL PHOSPHOROUS OXIDE COMPOUNDS AND USE THEREOF” (Chengdu Di'ao Jiuhong Pharmaceutical Factory, priority 2020, published 2023).

What was measured:
[1] = test system: Ba/F3 cells expressing EGFR-C797S/T790M/L858R; assay: Cell anti-proliferation test 1 (CTG), BaF3 EGFR-C797S/T790M/L858R; details: Mus musculus, BaF3, 72 h, read-out: EGFR-C797S/T790M/L858R IC50
[2] = test system: PC9 cells expressing EGFR-C797S/T790M/Del19; assay: Cell anti-proliferation test 2 (SRB), PC9 EGFR-C797S/T790M/Del19; format: cell-based; details: Homo sapiens, PC-9, 72 hours
Method: (§1) • 1. […] Test information: • 2.1. […] Test method:
(§2) The test compounds were diluted by 5 times each time with an appropriate concentration as an initial concentration of the test, and totally diluted into 6 concentration gradients. […] SRB (Sulforhodamine B) detection method was used, and the optical density value of each well was read by a microplate reader at 490 nm wavelength.
(§3) The optical density of the cells at the drug action of 0 was set as a Tz value representing the value of the cells at the time that the drug was added. The optical density value of the cells after the solvent control DMSO acted for 72 hours was set as a C value. The optical density of the cells on which the test compounds acted for 72 hours was set as a Ti value. The response of the cells to the drug was calculated according to a method proposed by the U.S. NIH-NCI (National Institutes of Health-National Institute of Cancer): When Ti is more than or equal to Tz, the value was [(Ti−Tz)/(C−Tz)]×100; and when Ti is less than Tz, the value was [(Ti-Tz)/Tz]×100.

[3] = test system: PC9 cells expressing EGFR-T790M/Del19; assay: Cell anti-proliferation test 2 (SRB), PC9 EGFR-T790M/Del19; format: cell-based; details: Homo sapiens, PC-9, 72 hours
Method: as §1, §2, §3

[4] = test system: Ba/F3 cells expressing EGFR-WT; assay: Cell anti-proliferation test 1 (CTG), BaF3 EGFR-WT; details: Mus musculus, BaF3, 72 h, read-out: EGFR-WT IC50
Ba/F3-EML-4-ALK-L1196M = assay: Cell anti-proliferation test 3 (CTG), Ba/F3-EML-4-ALK-L1196M; format: cell-based; details: Ba/F3 EML4-ALK-L1196M, 72 h, BaF3 cells, Day 3
[5] = test system: PC9 cells expressing EGFR-Del19; assay: Cell anti-proliferation test 2 (SRB), PC9 EGFR-Del19; format: cell-based; details: Homo sapiens, PC-9, 72 hours
Method: as §1, §2, §3

[6] = test system: Ba/F3 cells expressing EGFR-C797S/T790M/Del19; assay: Cell anti-proliferation test 1 (CTG), BaF3 EGFR-C797S/T790M/Del19; details: Mus musculus, BaF3, 72 h, read-out: EGFR-C797S/T790M/Del19 IC50
Ba/F3-EML-4-ALK-WT = assay: Cell anti-proliferation test 3 (CTG), Ba/F3-EML-4-ALK-WT; format: cell-based; details: Mus musculus, 72 h, BaF3 cells, Day 3
[7] = test system: Ba/F3 cells expressing EGFR-T790M/L858R; assay: Cell anti-proliferation test 1 (CTG), BaF3 EGFR-T790M/L858R; details: Mus musculus, BaF3, 72 h, read-out: EGFR-T790M/L858R IC50
[8] = test system: Ba/F3 cells expressing EGFR-T790M/Del19; assay: Cell anti-proliferation test 1 (CTG), BaF3 EGFR-T790M/Del19; details: Mus musculus, BaF3, 72 h, read-out: EGFR-T790M/Del19 IC50

Compound	IC50 [1] [nM]	GI50 [2] [nM]	GI50 [3] [nM]	IC50 [4] [nM]	IC50 (Ba/F3-EML-4-ALK-L1196M) [nM]	GI50 [5] [nM]	IC50 [6] [nM]	IC50 (Ba/F3-EML-4-ALK-WT) [nM]	IC50 [7] [nM]	IC50 [8] [nM]
COc1cc(N2CCC(N3CCN(C)CC3)CC2)c(C)cc1Nc1ncc(Cl)c(Nc2cccc(C)c2P(C)(C)=O)n1 [Control compound 1, reference compound]	626	337	267	1600	65	266	180	34.1	–	–
CCc1cc(Nc2ncc(Br)c(Nc3ccc(C)cc3P(C)(C)=O)n2)c(OC)cc1N1CCC(N2CCN(C)CC2)CC1 [Compound 12]	37.1	9.7	13.4	785	12.5	35.6	13.5	10.1	–	–
COc1cc(N2CCC(N3CCN(C)CC3)CC2)c(C)cc1Nc1ncc(Cl)c(Nc2ccc(C)cc2P(C)(C)=O)n1 [Compound 1]	96.9	19	17.5	1290	24.4	57.5	21.5	12.1	–	–
COc1cc(N2CCC(N(C)C)CC2)c(C)cc1Nc1ncc(Cl)c(Nc2ccc(C)cc2P(C)(C)=O)n1 [Compound 5]	119	23.6	15.9	1780	15.6	42.6	26.8	6.5	55.9	38.1
COc1cc(N2CCC(N3CCN(C)CC3)CC2)c(C)cc1Nc1ncc(Cl)c(Nc2ccccc2P(C)(C)=O)n1 [Control compound 2, reference compound]	583	316	289	1760	47.4	262	221	43.6	–	–
COc1cc(N2CCC(N3CCN(C)CC3)CC2)c(C)cc1Nc1ncc(Br)c(Nc2ccc(F)cc2P(C)(C)=O)n1 [Compound 11]	82.6	10.9	14.6	1090	17.1	43.9	19	9.4	–	–
COc1cc(N2CCC(N3CCN(C)CC3)CC2)c(C)cc1Nc1ncc(Br)c(Nc2cc(C)ccc2P(C)(C)=O)n1 [Compound 9]	186	–	–	1890	–	–	34.2	–	–	–
COc1cc(N2CCC(N3CCN(C)CC3)CC2)ccc1Nc1ncc(Cl)c(Nc2ccc(C)cc2P(C)(C)=O)n1 [Control compound 3, reference compound]	566	502	389	2340	50.2	368	192	39.4	–	–
COc1cc(N2CCC(N3CCN(C)CC3)CC2)c(Br)cc1Nc1ncc(Br)c(Nc2ccc(C)cc2P(C)(C)=O)n1 [Compound 32]	85.9	–	–	806	14.3	–	22.7	8.9	–	–
